# Results: the supplement of paper PMC3334620
# In all, about 33,000 sequences were measured (“E-score (-0.5 to 0.5)”: median about -0.056, highest 2% from about 0.38 on). The list shows a part of the results.
# Molecular target: Stb4 (UniProt P50104)
# Assay: PBM E-score (8-mer binding enrichment) (E-score (-0.5 to 0.5)); higher = stronger / more preferred TF binding; most listed sequences are background and not binding sites
# Details: protein concentration: 200 nM; construct: GST-DNA-binding domain
# Procedure: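 Universal 'all 10-mer' protein binding microarrays (Agilent AMADID 015681) probed with GST-tagged S. cerevisiae TFs (full-length or DBD) made by in vitro transcription/translation (PURExpress), about 100-200 nM. Bound TF was detected with fluorescent anti-GST. Each ungapped 8-mer (which stands for itself and its reverse complement) is scored by the PBM enrichment score (E-score), a modified Wilcoxon-Mann-Whitney statistic from -0.5 to +0.5, computed with the Universal PBM Analysis Suite. Scale: above 0.35 generally sequence-specific binding.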
row,Sequence,PBM E-score
1,CCACGAGC,0.0234
2,ACTTTTAA,-0.131
3,AGTTTCCC,0.132
4,GATCGGGC,0.22
5,ATGGGTTA,-0.125
6,GGCCCGAA,0.381
7,AGAGAGAT,-0.139
8,CCGCTTCA,0.114
9,CAGACTTC,-0.212
10,AGCACGCC,-0.029
11,AGGAGGTA,-0.0982
12,GCAGACAA,-0.0753
13,GGTCCAAA,0.111
14,ATTTTAGA,0.0944
15,AGACCCAC,0.0322
16,CAGTGCAG,-0.129
17,CGTAGCCA,-0.0402
18,ACGCACGC,0.11
19,CTAGGTGA,-0.384
20,GCGCTTGA,0.0219
21,ACTGAAGG,-0.0721
22,AAACCTGA,-0.0724

row,Sequence,PBM E-score
1,ATGTACAT,-0.258
2,TTGGACAA,0.047
3,CGTACCAG,-0.103
4,AGCCGTCA,0.237
5,AGCCACGG,0.0348
6,AACCATGG,-0.0283
7,ATGGTAAT,0.149
8,AGATCGTA,-0.099
9,ATTCGAGG,-0.096
10,CTCAACAA,-0.206
11,GATCCTAA,-0.165
12,ATCTTTGG,-0.165
13,CCAGAGGG,0.0202
14,ATATTACA,0.0675
15,AGTCTAGC,-0.148
16,GACATCCC,0.128
17,AATATAAA,0.0199
18,GAATCGTC,0.115
19,CGGTTGGC,0.184
20,CTTGGTAA,-0.185
21,GGCAGAAC,0.0679
22,CCATGTCA,-0.32

row,Sequence,PBM E-score
1,GGCAGCCC,0.151
2,GAAGGCAC,0.0839
3,AGCAAGCG,0.163
4,CCTTGGAC,-0.131
5,GGGGACAC,-0.11
6,CTTAGTGC,0.0187
7,ACAGGCAT,-0.242
8,AGGATCGA,0.00545
9,AGCCGGAG,0.379
10,CCTGAACC,-0.232
11,GTATACAC,0.103
12,CACCGGGC,0.12
13,AACCCACT,0.0655
14,GGGGGTGA,-0.12
15,AGGAGGAT,-0.171
16,AAGCCTAC,-0.253
17,GCTTGTCC,0.0568
18,ACCAGCCT,-0.171
19,CCAGCGAG,-0.128
20,CCCGCTTC,0.211
21,ATCAATTC,-0.097
22,GTTAAAAA,0.00196

row,Sequence,PBM E-score
1,CTTGGAAA,0.0714
2,GTTGCGCA,-0.11
3,TGTCCAAA,-0.167
4,AAGACCTT,-0.178
5,GTGTCCGA,0.31
6,ATTCCGTC,0.285
7,CCCAGGGA,-0.218
8,TGGAGTAA,-0.192
9,CGAAATCC,0.165
10,CGCTAACA,-0.0865
11,ACATATGC,-0.279
12,CGAGTATA,0.0788
13,TCTTGCAA,0.0931
14,ATATTTTA,-0.00971
15,GCCACCGA,0.0486
16,AGACCGAC,0.19
17,ACGTTATC,-0.0756
18,AGCACTGA,-0.229
19,AACAGCCT,-0.151
20,ATCCTGAC,-0.112
